This assay has as its system GEF-H1 (GEF-H1-CA, HEK293 cells). As to the kind of experiment: αSMA promoter luciferase gene reporter assay, GEF-H1-CA. To be noted: HEK293 co-transfected with GEF-H1-CA; dual luciferase; TAT-F1 4 µM, TAT-P5 20 µM or concentrations indicated; overnight. From the text:
GEF-H1 regulates αSMA expression and promoter activity in a RhoA-dependent manner. Therefore, we next tested whether the inhibitors can attenuate GEF-H1-induced activation of the αSMA promoter using a luciferase reporter gene assay.
(In general: Reporter assays use an easily measured gene product as a stand-in for the process of interest.)

Consider “GRKKRRQRRRPWQDYIAEVPRSDYDLRPTGQD [TAT-scr]”, for which the “GEF-H1-induced αSMA promoter activity” value is “did not affect GEF-H1-induced αSMA promoter activity”.
